In PubChem BioAssay AID1159614 (National Center for Advancing Translational Sciences (NCATS), 2016):
Among all 45,000 compounds or so, about 65 (0.1%) were called active. Calls come from the whole dose curve; as a rule, active = well fitted activation curve with a large enough effect; inconclusive = small, poorly fitted or top-dose-only effect; inactive = no such curve, though single readings can be large or run the other way. The list shows a part of the results.

molecular target: Galactocerebrosidase (Homo sapiens) (UniProt P54803); experiment: A Novel Cell-Based Assay to Identify Small Molecules for B -Galactocerebrosidase; settings: 145M-Twi-hGALC-G270D cells (Twitcher mouse brain line with human GALC G270D), HMU-beta-Gal fluorescence, 48 h; series mostly up to 57.5 µM; activation: at the top concentration; note: 0% is about no effect; nearly all actives have a fitted effect of over 65% in size
UniProt P54803, sequence (P54803 whole entry, looked up): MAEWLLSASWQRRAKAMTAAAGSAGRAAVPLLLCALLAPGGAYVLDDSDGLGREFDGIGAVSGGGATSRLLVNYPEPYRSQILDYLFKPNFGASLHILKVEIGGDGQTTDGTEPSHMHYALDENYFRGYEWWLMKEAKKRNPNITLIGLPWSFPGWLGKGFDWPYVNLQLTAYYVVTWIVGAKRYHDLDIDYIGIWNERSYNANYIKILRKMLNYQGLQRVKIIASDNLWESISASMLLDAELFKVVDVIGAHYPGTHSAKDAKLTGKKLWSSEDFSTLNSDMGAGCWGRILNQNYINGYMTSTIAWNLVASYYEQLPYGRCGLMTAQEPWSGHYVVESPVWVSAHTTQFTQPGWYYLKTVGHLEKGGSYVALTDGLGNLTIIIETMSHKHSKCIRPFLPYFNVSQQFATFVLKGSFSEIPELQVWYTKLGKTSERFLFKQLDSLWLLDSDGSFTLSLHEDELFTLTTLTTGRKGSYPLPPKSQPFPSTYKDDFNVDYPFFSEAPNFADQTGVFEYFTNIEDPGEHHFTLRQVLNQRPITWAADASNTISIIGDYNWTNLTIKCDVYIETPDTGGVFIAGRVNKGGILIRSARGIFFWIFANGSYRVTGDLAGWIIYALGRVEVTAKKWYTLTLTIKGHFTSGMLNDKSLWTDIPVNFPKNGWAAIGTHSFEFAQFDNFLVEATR
Procedure, shortened: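 Brain-derived Twitcher mouse 145M-Twi cells stably expressing human GALC-G270D or wild-type GALC, treated live, then residual GALC activity read by fluorescence of HMU-b-Gal substrate (0.1 mM final) in citrate-phosphate buffer pH 5.2 with sodium taurocholate. Signal increase indicates enhancement.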

activation, inactive:
O=C(CCn1c(=O)c2sccc2n(Cc2cccc(F)c2)c1=O)NCc1ccc2c(c1)OCO2 8.98%, Cc1ccc(S(=O)(=O)c2nc(-c3ccco3)oc2SCC(=O)Nc2ccc(F)cc2)cc1 -30.7%, Cc1ccc(NC(=O)Cn2c(=O)n(Cc3nc(C)no3)c(=O)c3cc4c(cc32)OCO4)c(Cl)c1 -14.5%, Cc1cccc(C)c1NC(=O)Cn1c(=O)n(Cc2ccco2)c(=O)c2ccc(C(=O)NC3CCCC3)cc21 -17.4%, O=C(NCCc1nc2ccccc2n1CCCOc1ccc(Cl)cc1)C1CCCCC1 -20.1%, O=C(Nc1c2c(nn1-c1ccc(Cl)cc1)CS(=O)(=O)C2)c1ccccc1F -24%, Cc1nn2c(C)c(C(=O)NCC(C)c3ccccc3)cnc2c1-c1ccccc1 (configuration not stated) -11.1%, COc1ccc(C2NC(=O)N(C)C3=C2C(=O)N(c2ccc(F)cc2)C3)cc1 (configuration not stated) -22.1%, Fc1ccc(Cn2c(-c3cccc(Br)c3)nc3ccccc32)cc1 -3.8%, CCOc1ccc(CCNC(=O)Cn2nc(CC)n3c(cc4sccc43)c2=O)cc1 -6.54%, CCOc1cc(C2c3c(-c4ccccc4O)n[nH]c3C(=O)N2Cc2cccnc2)ccc1O (configuration not stated) -6.66%, CSc1ccc(/C=C2/C(C)=C(CC(=O)O)c3cc(F)ccc32)cc1 -13.6%, Cc1ccc(NC(=O)c2sc(-n3nc(C)c(Cc4ccc5c(c4)OCO5)c3C)nc2C)cc1C -9.72%, CCC(C(=O)NCc1ccccc1Cl)n1nc(C)c2sc3ccccc3c2c1=O (configuration not stated) -12.2%, Cc1cccc(NC(=O)CSc2nccn2-c2cccc(Cl)c2)c1C -13.1%, COc1ccc(C(=O)Nc2noc3ccccc23)cc1 -0.73%, O=c1cc(-c2ccccc2)n2c(SCc3cccc([N+](=O)[O-])c3)nnc2[nH]1 -34.9%, O=C(CCCn1c(=O)c2sccc2n(Cc2cccc(Cl)c2)c1=O)NCc1ccc2c(c1)OCO2 -24.5%, CCOC(=O)CN1C(=O)c2cccnc2Oc2ccccc21 -8.06%, CNS(=O)(=O)c1cn(CC(=O)N2CCN(c3cc(C)ccc3C)CC2)cc1S(=O)(=O)NC -16.3%, Cc1cc(C)cc(NC(=O)CSCc2cc(=O)c3ccc(C)c(C)c3[nH]2)c1 -8.65%, CCCCN(c1ccccc1)S(=O)(=O)c1ccc2c(c1)CC(C)N2C(=O)C1CC1 (configuration not stated) -19.4%, CCc1ccccc1Nc1nc2ccccc2n2cnnc12 -3.34%, COc1ccc(CCNC(=O)CCn2c(=O)c3cccn3c3cccnc32)cc1OC 4.82%, COc1ccc(Cl)cc1NC(=O)CSc1nc(-c2ccco2)cc(C(F)(F)F)n1 -13.2%, CCOc1cc(C(=O)N2CCC(c3ccncc3)CC2)cc(OCC)c1OCC -8.19%, CCOc1ccc(NC(=O)CN2CCN(CC(=O)Nc3ccccc3OCC)CC2)cc1 -8.85%, CCC(C)(C)c1ccc(CC(C)CN2C[C@@H](C)O[C@@H](C)C2)cc1 (some centres not stated) -24.4%, NC(=O)C1CCN(C(=O)Cn2c(-c3cccs3)cc3ccccc32)CC1 -12.5%, Cc1cccc(C)c1OC(=O)CSc1nnc(-c2cccs2)o1 1.13%, COc1ccc(-c2oc3ncn4nc(-c5ccccc5C)nc4c3c2-c2ccc(OC)cc2)cc1 -14.2%, CC1CN(S(=O)(=O)c2ccc3c(c2)NC(=O)CC(=O)N3)c2ccccc2O1 (configuration not stated) -11.5%, CCOC(=O)c1ccc(NC(=O)COC(=O)c2cn(CC)c3nc(C)ccc3c2=O)cc1 9.1%, COc1ccccc1-n1nc(-c2ccccc2)c2cnc3cc(C(F)(F)F)ccc3c21 -1.29%, Cc1ccc(C)c(CN2C(=O)c3ccccc3S(=O)(=O)c3ccc(C(=O)N4CCN(c5ccccc5F)CC4)cc32)c1 -13.9%, CCOC(=O)c1ccc(C#Cc2ccc3c(c2)C(C)(C)CCS3)nc1 -18.5%, COc1ccc(CNC(=O)CCc2nnc3n(CC(C)C)c(=O)c4ccccc4n23)cc1 -2.89%, COc1cccc(NC(=O)Cn2c(=O)n(CCCCC(=O)NCCc3ccccc3)c(=O)c3ccccc32)c1 -13.1%, CCOC(=O)C1=C(CN2CCN(c3cc(C)ccc3C)CC2)NC(=O)NC1c1ccc(Cl)cc1 (configuration not stated) -13.9%, CCS(=O)(=O)N1CCc2cc(C(=O)Nc3cc(C(F)(F)F)ccc3Cl)ccc21 -11.7%, COc1ccc(C)cc1NS(=O)(=O)c1ccc2[nH]c(=O)c(=O)[nH]c2c1 -11.8%, CCn1ccc2cc(S(=O)(=O)N3CCCN(C(=O)NCCOC)CC3)ccc21 -4.51%, O=C(NCc1cccnc1)C(=O)NCC(c1cccnc1)N1CCN(c2ccccc2)CC1 (configuration not stated) -1.21%, CCc1cc2c(cc3c(=O)n(CC(=O)N4CCN(c5cc(Cl)ccc5C)CC4)nc(CC)n32)s1 -11.4%, CC(C)CCNc1nc2c(S(=O)(=O)c3ccc(Br)cc3)nnn2c2ccsc12 11.8%, CCc1ccc(-n2nc(C)c3c(C)cc(=O)n(CC(=O)NCc4ccc(C)cc4)c32)cc1 -16.3%, CCc1ccc(NC(=O)CSc2nc(C)cc(COC)c2C#N)cc1 -18.6%, CCOc1ccc(NC(=O)Cn2c(=O)n(CC3CCCO3)c(=O)c3ccccc32)cc1 (configuration not stated) -3.24%, CCOc1ccc2nc(N3CCCC(C(=O)NCc4ccccc4Cl)C3)sc2c1 (configuration not stated) -7.99%, COc1ccc2cc(C(=O)NCc3ccc4c(c3)CCN4C(=O)c3ccc(C)cc3)[nH]c2c1 -6.82%, C=Cc1ccc(Cn2c(=O)n(-c3ccc(C)cc3)c(=O)c3c2c2cc(OC)ccc2n3C)cc1 -17.7%, O=C(NCc1ccccc1)C1CCN(C(=O)c2cnn(-c3ccccc3)c2-n2cccc2)CC1 2.98%, CCOC(=O)c1cccc(NC(c2nnc(-c3ccccc3)o2)c2ccccc2F)c1 (configuration not stated) -9.77%, Cc1ccc(C)c(N2CCN(c3nc4ccccc4c4nc(-c5cccnc5)nn34)CC2)c1 -16%, NC(N)=NCCN1CCCCCCC1 -17.2% [at 0.46 µM], CC(C)C(=O)Nc1cccc(NC2=NS(=O)(=O)c3ccccc32)c1 -12.5%, CCc1ccc(C2=CC(c3cccc(Br)c3)n3nnnc3N2)cc1 (configuration not stated) -14.9%, Cc1ccc2c(c1)c(=O)c(C(=O)c1ccncc1)cn2CC(=O)Nc1ccccc1Cl -7.21%, Cc1ccc(C)c(Cn2c(C)c(CNCc3ccc(F)cc3)c(C(=O)O)c2C)c1 -11.8%, COc1ccc(CCNC(=O)CCCCCn2c(=O)[nH]c3cc(OC)c(OC)cc3c2=O)cc1OC -10%, CC1=C(C(=O)Nc2ccc(C)cc2C)C(c2cccn2C)n2ncnc2N1 (configuration not stated) -8.62%, CC(=O)Nc1nnc(SCc2cc(=O)c3cccc(C)c3[nH]2)s1 -11.2%, COc1ccc(NC(=O)CSc2nc(O)c(C/C=C/c3ccccc3)c(=O)[nH]2)cc1 -15.4%, Cc1ccc(CNC(=O)C2CCCN(c3nnc(-n4c(C)ccc4C)s3)C2)cc1 (configuration not stated) 0.0294%, CCSc1nc(-c2ccc(Cl)cc2)nc2c1Cc1c(CO)cnc(C)c1O2 -2.14%, COc1ccccc1CNC(=O)CCC1N=C2c3ccccc3N=C(SCc3ccccc3Cl)N2C1=O (configuration not stated) -1.27%, CC1=C(c2ccc(Cl)cc2)S(=O)(=O)N=C1N1CCN(c2cccc(C(F)(F)F)c2)CC1 -0.0591%, COc1ccc(-c2cc(C(F)(F)F)n3nc(C(=O)Nc4cccc(C(F)(F)F)c4)c(Br)c3n2)cc1 -2.02%, CCOC(=O)c1sc2ccccc2c1S(=O)(=O)NCc1ccc(F)cc1 -8.32%, COC(=O)c1cnc(N2CCN(c3ccccc3OC)CC2)c2ccccc12 -11.1%, CCOC(=O)c1ccc(NC(=O)CCn2cnnn2)cc1 -12.4%, Cc1ccc(NC(c2nnc(-c3ccccc3)o2)c2ccccc2F)c([N+](=O)[O-])c1 (configuration not stated) -3.48%, Cc1ccc(-n2nnnc2CNC(=O)c2ccccc2F)cc1C -13.3%, CCN1CCCC1CNC(=O)c1cc(S(=O)(=O)CC)c(N)cc1OC (configuration not stated) -6.23%, Nc1nc(N)nc(-c2cc(Cl)ccc2Cl)n1 -5.23%, O=C(NCc1ccccc1Cl)c1ccc(CSCc2cccc(F)c2)o1 5.69%, O=C(NCc1ccc(Cl)cc1)c1ccc2c(c1)NC(=O)C(CS(=O)(=O)Cc1ccccc1Cl)N2 (configuration not stated) -27.7%, CCn1c(=O)c2cc(C(=O)NCCCN(C)Cc3ccccc3)sc2c2ccccc21 -6.95%, CCc1cccc(NC(=O)Cn2cc(C(=O)c3ccncc3)c(=O)c3cc(C)c(C)cc32)c1 -37.3%, CCC1CCCCN1C(=O)Cn1c(=O)n(CCCCCC(=O)NCc2ccc(F)cc2)c(=O)c2sccc21 (configuration not stated) -6.71%, Cc1cccn2c(=O)cc(COc3ccc(NC(=O)c4cccc(F)c4)cc3)nc12 -3.9%, O=C(O)CCn1cnc2onc(-c3ccccc3Cl)c2c1=O 1.67%, O=C(Nc1c(C(=O)Nc2cccc(C(F)(F)F)c2)oc2ccccc12)c1cc(=O)c2ccccc2o1 -7.54%, COc1ccc(CNC(=O)C(C)N2Cc3ccccc3C2=O)cc1 (configuration not stated) 1.68%, CCCCOc1ccccc1C(=O)Nc1nonc1-c1ccccc1 6.47%, Cc1cccc(N(C)c2nc3ccc(C)cc3n3cnnc23)c1 -31.9%, CCCc1ccc(OCC(=O)Nc2sc3c(c2C(=O)OC)CCCCC3)cc1 -20.1%, CC(C)CC(=O)NCC1(N(C)C)CCCCC1 12.2%, CCn1ccc2cc(S(=O)(=O)N3CCCN(C(=O)Nc4ccc(C)c(F)c4)CC3)ccc21 -27.9%, O=C(Nc1nnc(S(=O)(=O)N2CCCCCC2)s1)c1ccccc1Cl 1.35%, COc1cc(OC)c(NC(=O)N2CCc3c(sc4c3CCCC4)C2c2ccccc2)cc1Cl (configuration not stated) -11.3%, Cc1cccc(NC(=O)C(Cc2ccccc2)n2cccc2)c1C (configuration not stated) -4.7%, CCOc1ccc(NC(=O)c2cc3c(s2)-c2ccccc2OC3)cc1 -3.05%, Cc1nc(-c2ccccc2)sc1CCNC(=O)C(=O)Nc1ccc2c(c1)OCCO2 -4.69%, CCOC(=O)c1ccc(NC(=O)CSc2nccn2-c2ccc(OCC)cc2)cc1 -1.4%, COc1ccccc1CCNC(=O)Cc1c(C)c2c(cc(C)c3c(C)c(C)oc32)oc1=O -12.3%, CCC(C)NC(=O)C1CCN(C(=O)c2ccc(-n3ccc4ccccc43)s2)CC1 (configuration not stated) -9.98%
